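Grown in 96-well plates, cells were treated for 48 hours with each compound at five concentrations. Insufficient inhibition: endpoint recorded as highest concentration tested. Abbreviation: GI50, concentration required for 50% inhibition of growth.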 Activity calls are given as the source filed them. No stated cut-off is given here; in the data, active = GI50 up to about 1.1 µM and inactive = higher. Where only a bound is given, the exact number is not on record here.

The test relates to NCI-H322M. The test can be described thus: NCI anticancer screen, dose series, 48 h.
On to `N=c1sc2ccccc2n1CC[S-].c1ccc2c(c1)sc1[n+]2CCS1`, for which the GI50 was inactive: 20.7 µM.
To `N#Cc1c(NC(=O)CCC(=O)O)ccc2ccccc12` belongs inactive: > 100 µM; to `Cc1ccc(NC(=O)CSc2nnc(Cc3ccccc3)o2)cc1`, inactive: > 100 µM.
In the case of `N=c1oc2ccccc2cc1-c1nc2ccccc2c(=O)[nH]1`, the GI50 was inactive: 66.7 µM.
With `O=C(O)C/C(=C\c1ccccc1)C(=O)O`, the GI50 is inactive: > 100 µM.
For `CC(CC(=O)Nc1ccc(NC(=O)CC(C)/N=N\C(N)=S)cc1)/N=N\C(N)=S` (configuration not stated), the GI50 was inactive: > 100 µM.
As to `Cc1ccc(N2C(=O)CS/C2=C(\C#N)c2nc3ccccc3[nH]2)cc1`, the GI50 was inactive: 50.4 µM.
Take `Cc1ccc(/C=N/Nc2nncc3ccccc23)s1`: the GI50 was inactive: 97.3 µM.
As for `O=C1C(Cl)=C(N2CCN(c3ccccn3)CC2)C(=O)c2ncccc21`, the GI50 was inactive: 12.3 µM.
Consider `CCCCc1ccc(Nc2nc3c(ncn3C3OC(COC(C)=O)C(OC(C)=O)C3OC(C)=O)c(=O)[nH]2)cc1` (configuration not stated), for which the GI50 is inactive: 19.9 µM.
`COc1cc(OC)cc(Oc2nc3ccccc3nc2C(F)(F)F)c1`: the GI50 is inactive: > 100 µM.
As to `N/N=C(\C(=O)Nc1c(Cl)cc([N+](=O)[O-])cc1Cl)C(c1cnc2ccc([N+](=O)[O-])cc2n1)[N+](=O)[O-]` (configuration not stated), the GI50 was inactive: > 100 µM.
Turning to `O=C(O)[C@H]1CCCN1CP(=O)(O)CN1CCC[C@@H]1C(=O)O`, the GI50 was inactive: > 100 µM.
Turning to `O=[N+]([O-])c1ccc(-c2ccc(/C=N/n3c(S)nnc3-c3ccc(Cl)cc3)o2)cc1`, the GI50 is inactive: 42.4 µM.
On to `CC(C)NC(=O)OCc1c2c(n(C)c1COC(=O)NC(C)C)-c1ccccc1CC2`, for which the GI50 was inactive: 16.7 µM.
As for `CC(=O)OCC1OC(n2c3c(c(-c4ccc(Cl)cc4)c(C#N)c2=S)C(=O)CC(C)(C)C3)C(OC(C)=O)C(OC(C)=O)C1OC(C)=O` (configuration not stated), the GI50 was inactive: > 65.6 µM.
Consider `Cn1c2cn[nH]c(=O)c2c2ccc3ccccc3c21`, for which the GI50 is inactive: 45.4 µM.
Regarding `Cc1cc(C)c(S(=O)(=O)N2CCCN(S(=O)(=O)c3c(C)cc(C)cc3C)OCCCO2)c(C)c1`, the GI50 is inactive: > 100 µM.
For `CCN(CC)CCCC(C)Nc1ccnc2ccc3nn(C)nc3c12` (configuration not stated), the GI50 is inactive: 35.2 µM.
With `O=c1[nH]c(=O)n(C2CC(O)C(CO)O2)cc1C#Cc1cc(F)cc(F)c1` (configuration not stated), the GI50 is inactive: > 100 µM.
Take `CCCC1C(=O)C(CC)Cc2c(OC)ccc(OC)c21` (configuration not stated): the GI50 was inactive: > 100 µM.
Turning to `Cc1ccc(OCCn2cc(Nc3ccccc3)c(=O)n(CCOc3ccc(C)cc3)c2=O)cc1`, the GI50 is inactive: > 100 µM.
As to `COC(=O)N1CC2C3C4CC(C(c5ccccc5)=C4c4ccccc4)C3C21` (configuration not stated), the GI50 was inactive: 14.4 µM.
In the case of `Cc1cc(CC(O)c2ccc(Cl)c(Cl)c2)nc(O)n1` (configuration not stated), the GI50 is inactive: 88.5 µM.
Regarding `COc1ccc(O)c2c(=O)ccccc12`, the GI50 is inactive: > 100 µM.
For the compound `Cc1ccc(C(=O)NCCN(C)C)c2nc3ccccc3cc12`, the GI50 was inactive: 4.38 µM.
As for `CC(C)(C)OC(=O)NCC(=O)NC1CC=CCC1NC(=O)CNC(=O)OC(C)(C)C` (configuration not stated), the GI50 is inactive: > 100 µM.
`Fc1ccc(/C=C2\COCC3=C2NC(=S)NC3c2ccc(F)cc2)cc1` (configuration not stated): the GI50 is inactive: 23.2 µM.
As for `COc1cc(C2S/C(=C/c3ccccc3)C(=O)N2c2ccccc2Cl)cc(OC)c1OC` (configuration not stated), the GI50 was inactive: 17.3 µM.
On to `C=CCNC(=S)NC=C(C(N)=O)C(N)=O`, for which the GI50 was inactive: > 100 µM.
With `CC(=O)CC(=O)NC=O`, the GI50 was inactive: > 100 µM.
On to `O=[N+]([O-])c1cccc(C2=NN(c3ccccc3)C3c4ccccc4OCC23)c1` (configuration not stated), for which the GI50 is inactive: > 100 µM.
As to `NC(=S)Nc1nc(=S)[nH]c2c1SC1=N/C(=C\c3ccco3)C(=O)N12`, the GI50 was inactive: > 100 µM.
To `CC(=O)Nc1ccc2c(c1)/C(=C\c1ccc([N+](C)(C)C)cc1)c1ccccc1-2` belongs inactive: 24.1 µM; to `CC(=O)NC1C(OCc2ccccc2)OC(CO)C(O)C1OCC(=O)N[C@@H](C)C(=O)N[C@H](CCC(=O)NCCCNc1c2ccccc2nc2cccc([N+](=O)[O-])c12)C(N)=O` (some centres not stated), active: 0.11 µM; to `C=CCOc1ccc(C(=N/NC(=O)c2ccccc2)/N=N/c2ccccc2)cc1OC`, inactive: 43 µM.
Next, `COc1ccc(CC(=O)N2CCC3(C)CC(=O)CC=C23)cc1OC` (configuration not stated): inactive: > 100 µM.
Turning to `CCCCCCCCCCCCCS(=O)(=O)NCC(N)=O`, the GI50 was inactive: > 10 µM.
For `COc1cc(OC)c2c(c1)C(=O)C(CC1(C)OCCCO1)=CC2=O`, the GI50 is inactive: 16.3 µM.
On to `CC(=O)Nc1ccc(C(=O)N2N=C(C)/C(=C/c3cccc([N+](=O)[O-])c3)C2=O)cc1`, for which the GI50 is inactive: > 100 µM.
For the compound `COc1ccc(/C(Cl)=C(\C=O)c2ccc(OC)cc2)cc1`, the GI50 was inactive: 91.8 µM.
Next, `O/N=C\c1cc(O)c(O)c(/C=N/O)c1`: inactive: 39.6 µM; `CC(C)(C)C(=O)C(c1ccc(-c2cscn2)cc1)c1ccc(-c2cscn2)cc1`: inactive: 90.6 µM; `Cc1cc(O)cc(O)c1/N=N/c1ccc([N+](=O)[O-])cc1`: inactive: 19.7 µM.
For the compound `CCOC(C/N=c1/nc(N(C)C)ss1)OCC`, the GI50 was inactive: > 85.9 µM.
Take `CCC(C)C(N)C(=O)N/N=C\c1c2c(nc3ccccc13)-c1cc3c(c(=O)n1C2)COC(=O)[C@]3(O)CC` (some centres not stated): the GI50 is active: 0.817 µM.
Next, `COC(=O)C1=C(C)NC(=O)N2[C@@H](CCOCc3ccccc3)CC[C@@H]12`: inactive: > 50 µM; `O=C1NCC(CSc2nc3cc(C4CCCc5c4[nH]c4ccccc54)ccc3o2)N1` (configuration not stated): inactive: 52.2 µM; `Nc1ccc(C(=O)CC2(O)C(=O)Nc3ccccc32)cc1` (configuration not stated): inactive: > 100 µM.
`ONCCCn1cnc2c(NC3CC3)ncnc21`: the GI50 is inactive: > 100 µM.
Next, `COc1cccc(C2C(C(=O)O)=C(CO)Oc3cc4c(cc32)OCO4)c1` (configuration not stated): inactive: > 100 µM; `C/C1=C\[C@H](C)C[C@H](C)OC(=O)C[C@H](c2ccc(O)cc2)NC(=O)[C@H](Cc2ccc(O)c(Br)c2)N(C)C(=O)[C@H](C)NC(=O)[C@@H](C)C1`: inactive: > 25 µM.
Consider `CCOC(=O)C1=C(Nc2ccccc2)SC/C1=N\NC(=O)Cc1ccccc1`, for which the GI50 was inactive: > 100 µM.
`CC1(C)CCC2=C(O1)/C(=N\Nc1ccccc1)c1ccccc1C2=O`: the GI50 was inactive: 31.2 µM.
`CC1(C)OC(=S)N(c2ccccc2)C12C=Cc1cc3ccccc3nc1S2` (configuration not stated): the GI50 was inactive: > 100 µM.
For the compound `Cc1nc2cc(C(F)(F)F)ccc2[nH]c1=O`, the GI50 was inactive: > 100 µM.
To `CC1(C)COC(c2cccc(C3=NC(C)(C)CO3)c2)=N1` belongs inactive: > 100 µM.
Regarding `O=P1(Oc2ccc(Cl)cc2)OCCS1` (configuration not stated), the GI50 is inactive: > 100 µM.
To `CN(C)C1C(O)=C(C(=O)NCN2CCCC2)C(=O)C2(O)C(O)=C3C(=O)c4c(O)cccc4C(C)(O)C3CC12` (configuration not stated) belongs inactive: > 100 µM.
For `CCn1cnc2c(=S)nc(N)[nH]c21`, the GI50 was inactive: > 100 µM.
As for `CC1CC(C)(C)CC(OCCN2CCCCC2)(c2ccccc2)C1` (configuration not stated), the GI50 was inactive: 10.5 µM.
Consider `CCC(Oc1ccc(OC)c2c1C(=O)CCC2)C(=O)O` (configuration not stated), for which the GI50 was inactive: > 100 µM.
On to `COc1ccc(C2ON(c3cccc(C)n3)CC=C2C)cc1` (configuration not stated), for which the GI50 is inactive: > 100 µM.
For `Clc1ccc(OCc2nnc3n2N=C(c2ccc(Br)cc2)CS3)cc1`, the GI50 was inactive: 34.8 µM.
For the compound `CCCC(=O)NC(Nc1ccc(S(=O)(=O)Nc2nc(C)cc(C)n2)cc1)(C(F)(F)F)C(F)(F)F`, the GI50 is inactive: > 100 µM.
Regarding `CC1=C(SC#N)S(=O)(=O)N(c2ccccc2)C(C)=C1SC#N`, the GI50 was inactive: 28.1 µM.
Turning to `ClCCN(CCCl)c1ccc(/C=N/Nc2ccnc3ccccc23)cc1`, the GI50 is inactive: 1.21 µM.
As to `OCc1ccn2c1[C@@H](O)CC2`, the GI50 is inactive: > 100 µM.
Next, `CS(=O)(=O)OCCN(CCOS(C)(=O)=O)c1ccc(/C=N/c2ccc3oc(=O)ccc3c2)cc1`: inactive: 16.3 µM.
Take `Cc1ccc(OP(=O)(Oc2ccc(C)cc2)N2C=Cc3ccccc3C2C#N)cc1` (configuration not stated): the GI50 is inactive: > 100 µM.
Take `COc1ccc2[nH]c3c(c2c1)[C@H](C)C[C@@H]1C(=O)N(c2ccccc2)C(=O)[C@H]31`: the GI50 was inactive: 32.6 µM.
With `CC(=O)O[C@H]1CC[C@@]2(C)C(=CC[C@@H]3[C@@H]2CC[C@]2(C)NC(=O)/C(=C\c4ccccc4)C[C@@H]32)C1`, the GI50 was inactive: 16.9 µM.
To `COc1cc(C2c3cc4c(cc3OC(N3CCOCC3)C2C)OCO4)cc(OC)c1OC` (configuration not stated) belongs inactive: 2.37 µM.
With `CC(C)[Si](OC1=CCC[C@H]2NC(=O)[C@@H](Cc3ccc([N+](=O)[O-])cc3)[C@@]12C)(C(C)C)C(C)C`, the GI50 was inactive: 14.7 µM.
In the case of `Cc1ccc(NC(=O)/C(Cc2nc3ccc([N+](=O)[O-])cc3nc2O)=N\NC(=O)C[n+]2ccccc2)c(C)c1`, the GI50 was inactive: 81.8 µM.
As to `Nc1ccc(S(=O)(=O)NCCS(=O)(=O)O)cc1`, the GI50 is inactive: > 100 µM.
As for `O=S(O)CCCCCSSCCCCSSCCCCCS(=O)O`, the GI50 is inactive: > 100 µM.
With `COC1CC(O[C@H]2CC[C@@]3(C)C(=CCC4(O)C3CCC35C(=O)OC6(C)O[C@@]43CCC65)C2)OC(C)C1O` (some centres not stated), the GI50 was inactive: > 100 µM.
For `O=C(O)C(Cc1c[nH]cn1)N1C(=O)c2ccccc2C1=O` (configuration not stated), the GI50 is inactive: > 100 µM.
Consider `CC1(C)CC(=O)C(=CNc2nc(-c3cccc([N+](=O)[O-])c3)cs2)C(=O)C1`, for which the GI50 was inactive: 51.2 µM.
As for `Cc1cc2ccccc2c[n+]1CC(O)C[n+]1cc2ccccc2cc1C`, the GI50 is inactive: > 100 µM.
As for `CN(C)Cc1cc(C(=O)/C=C/c2cccc(Cl)c2)cc(CN(C)C)c1O`, the GI50 is inactive: 7.87 µM.
